Measurements taken from the RNAGym collection of RNA variant scans (doi:10.1093/nar/gkz1192).
Read counts are not given, so values of variants with three or more changes are uncertain.

B1: CPEB3 Ribozyme (parent)
chain: UAACAGGGGGCCACAGCAGAAGCGUUCACGUCGCAGCCCCUGUCAGAUUCUGGUGAAUCUGCGAAUUCUGCUGUAUAUCUC

Variants of: B1
Assay: self-cleavage, relative activity (ratio to wild type); higher = more cleavage; in vitro, sequencing
Procedure, shortened: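 After error-prone PCR and barcoding, CPEB3 ribozyme mutant libraries were transcribed with T7 RNA polymerase at 37°C for 5 hours, then given 15 min with DNase I before an EDTA stop, and they cleaved during both steps. Reverse transcription with template switching preceded Illumina sequencing. Relative activity divides a variant's cleaved/total read fraction by the unmutated ribozyme's. At least 5 reads were required per variant, and three batches were averaged.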

Row | Variant | self-cleavage
1 | A18G U48C A56G U69C | 0.49
2 | A18G U48C A75U | 0.32
3 | A18G U48C U66C U72G | 0.15
4 | A18G U49A A65G | 0.14
5 | A18G U49A C79U | 0.62
6 | A18G U49C U51G U78A | 0.45
7 | A18G U49C U58C A75G U76A | 0.1
8 | A18G U49C U69C U78C | 0.58
9 | A18G U51A U74C | 0.93
10 | A18G U51C A57G | 0.49
11 | A18G U51C A64G | 0.34
12 | A18G U51C A64G U76C | 0.29
13 | A18G U51C A64U A65G U67A C81A | 0.36
14 | A18G U51C C59U U66C U69C | 0.17
15 | A18G U51C U66C U78C | 0.31
16 | A18G U54A A64G | 0.41
17 | A18G U54A A64G U78C | 0.46
18 | A18G U54A U78C | 0.99
19 | A18G U54C A57G | 0.3
20 | A18G U54C U58A | 0.17
21 | A18G U54C U69A U76C C81A | 0.91
22 | A18G U54C U74C | 1.05
23 | A18G U54G A57U U72C | 0.16
24 | A18G U58A U69C U78A | 0.66

Row | Variant | self-cleavage
25 | A18G U58A U78C | 0.2
26 | A18G U60A U78A C79A | 0.53
27 | A18G U60C U69A | 0.21
28 | A18G U60C U78A | 0.27
29 | A18G U66A U72G | 0.14
30 | A18G U66A U78C | 0.39
31 | A18G U66C U69A | 0.22
32 | A18G U67C U78C | 0.17
33 | A18G U69A U72C U74A U80C | 0.26
34 | A18G U72A A77G | 0.15
35 | A18G U72C U76C U80A | 0.79
36 | A18G U72C U78C | 0.83
37 | A18G U72C U80A | 1.02
38 | A18G U80C C81U | 1.2
39 | A18U A20G A21G U58C C68A | 0.09
40 | A18U A20G A28G U43C U76C | 0.04
41 | A18U A20G A35U U41C U43C U48C | 0.08
42 | A18U A20G C23U U58C U69C | 0.04
43 | A18U A20G C40A A47G A57G | 0.05
44 | A18U A20G G22A U26A U41C U48C | 0.06
45 | A18U A20G U26A A45G U54C U74G | 0.07
46 | A18U A20G U49C A64G | 0.18
47 | A18U A20G U76A | 0.36
48 | A18U A20U A45G C62A U72C | 0.23

Row | Variant | self-cleavage
49 | A18U A20U U31C | 0.21
50 | A18U A20U U41C A57C | 0.19
51 | A18U A20U U49C | 0.39
52 | A18U A21C C40A U43G A56U U60C A65G | 0.04
53 | A18U A21G A35G A64G | 0.42
54 | A18U A21G A47G U69C A75G | 0.05
55 | A18U A21G C71A U74C U78A | 0.1
56 | A18U A21G G36A C40U | 0.21
57 | A18U A21G U25C | 0.21
58 | A18U A21G U26C | 0.07
59 | A18U A21G U41C A56U U74A | 0.03
60 | A18U A21G U43A U60A | 0.1
61 | A18U A21U A28G U43C C62A | 0.1
62 | A18U A21U U26C G33U U43A | 0.05
63 | A18U A21U U43A U48C A56U U72C U78C | 0.08
64 | A18U A21U U43C U67G | 0.06
65 | A18U A28C U31C U80C | 0.2
66 | A18U A28G A35G U48A U60A A65G | 0.07
67 | A18U A28G A56U | 0.16
68 | A18U A28G A57C | 0.23
69 | A18U A28G A57G U67A | 0.1
70 | A18U A28G C38U U43A A57G | 0.36
71 | A18U A28G G30A U72C | 0.08
72 | A18U A28G G33C U69G A77G U80C | 0.05

Row | Variant | self-cleavage
73 | A18U A28G G33C U80C | 0.05
74 | A18U A28G U41C U48C A56G | 0.04
75 | A18U A28G U41C U51G U72A | 0.09
76 | A18U A28G U67C | 0.11
77 | A18U A28U A57G G63A A64U C79U | 0.09
78 | A18U A28U A57G U76C | 0.17
79 | A18U A28U C38U A45G A64U U78C | 0.05
80 | A18U A35G C37A U41C G61A | 0.24
81 | A18U A35G G52A U54C U69A | 1.31
82 | A18U A35G U41A A64G | 0.26
83 | A18U A35G U43A A57G | 0.96
84 | A18U A35G U43C | 0.28
85 | A18U A35G U43C A57U U67G | 0.05
86 | A18U A35G U49A U51A A57G A65G | 0.33
87 | A18U A35U A45G | 0.37
88 | A18U A35U A45U | 0.16
89 | A18U A45U U48C U72G U80A | 0.08
90 | A18U A47G A75G | 0.3
91 | A18U A47G U54A | 0.54
92 | A18U A47G U54C U58C C71A | 0.17
93 | A18U A47G U72C | 0.34
94 | A18U A47G U72G | 0.21
95 | A18U A47U U67C | 0.04
96 | A18U A56G U58C A65G U67C | 0.2

Row | Variant | self-cleavage
97 | A18U A56G U58C A75C | 0.17
98 | A18U A56G U58C C62U A65U A75C | 0.04
99 | A18U A56G U69A | 1.18
100 | A18U A57G A64G U66C | 0.25
101 | A18U A57G U67C U76A | 0.21
102 | A18U A64U C81A | 0.26
103 | A18U A65G U69A U78C | 0.57
104 | A18U A65U U78C | 0.2
105 | A18U A77U U80A | 0.81
106 | A18U C23A U26C A28G U31C G53U A64G | 0.06
107 | A18U C23U U26C G36C U69C | 0.06
108 | A18U C27A A56G G70U U78C | 0.08
109 | A18U C27A U58C U69A | 0.17
110 | A18U C27G A56G A64U U69G U72A | 0.03
111 | A18U C29U A57G A65G | 0.48
112 | A18U C29U U41A A47G A65U U67C | 0.07
113 | A18U C32U U43C U74C | 0.13
114 | A18U C32U U67A G70A | 0.1
115 | A18U C34A A65G | 0.17
116 | A18U C37U G63C U66C U69C A77U | 0.13
117 | A18U C38U U48G U49C | 0.14
118 | A18U C39U G53C A57G U60C A65C | 0
119 | A18U C40U U58A U69C | 0.05
120 | A18U C44A A75G | 0.1

Row | Variant | self-cleavage
121 | A18U C44G A57G A65U | 0.19
122 | A18U C44U U48C U54C A77U | 0.09
123 | A18U C44U U76C | 0.64
124 | A18U C59U A64U U72C U80C | 0.18
125 | A18U C62U U67C | 0.15
126 | A18U C68A U74C U80C | 0.21
127 | A18U G19U A45C | 0.13
128 | A18U G22A U31C | 0.04
129 | A18U G24A A56G U80C | 0.21
130 | A18U G24A U25C A77G | 0.03
131 | A18U G30A U31C A45G U74C A75G | 0.22
132 | A18U G30U U41C | 0.04
133 | A18U G33A G52C U54A U60C A64U U69C | 0.08
134 | A18U G33A U74A U80A | 0.21
135 | A18U G33U U66C | 0.37
136 | A18U G36A A47G U48C A56G U60A | 0.07
137 | A18U G36U G42A U60C | 0.06
138 | A18U G42A U48C A64G U67C | 0.31
139 | A18U G52A U69A | 1.19
140 | A18U G55A U78A | 0.25
141 | A18U G70A G73A | 0.43
142 | A18U U25A A47G U48C A56G A65G U69A | 0.06
143 | A18U U25A C29A U54C A57U U78C | 0.04
144 | A18U U25A U51A | 0.22

Row | Variant | self-cleavage
145 | A18U U25A U51C A64U | 0.14
146 | A18U U25C A28U C38U U51A U54C C71U | 0.05
147 | A18U U25C A35G A45G A57G | 0.04
148 | A18U U25C A64G U72C A75G U80C | 0.03
149 | A18U U25C G52A A64U | 0.11
150 | A18U U25C U26C G36U | 0.07
151 | A18U U25C U41C C44U A45G U69C | 0.14
152 | A18U U25C U54C A64U U72C U76C | 0.09
153 | A18U U25C U54C G55A | 0.06
154 | A18U U25G C38A U66C U74A | 0.05
155 | A18U U25G U41A | 0.23
156 | A18U U26A A35U C40U U80C | 0.08
157 | A18U U26A A45G A65U U72C | 0.31
158 | A18U U26A C37G U48C U60C U69G | 0.05
159 | A18U U26A G61A U78C | 0.15
160 | A18U U26A U43C A65G U74A | 0.32
161 | A18U U26A U51C U58A | 0.12
162 | A18U U26C A28G U48C | 0.21
163 | A18U U26C A45U U49C U69C | 0.15
164 | A18U U26C A56U G70C U72C | 0.08
165 | A18U U26C A65G U78C | 0.21
166 | A18U U26C G30A C32U A57G | 0.06
167 | A18U U26C U51C U69C | 0.08
